Assay results as given in PubChem BioAssay AID1508624 (National Center for Advancing Translational Sciences (NCATS), 2021).
About 120 (0.25%) of roughly 48,000 compounds were called active. Another 4% or so got no clear call; they are omitted. Calls come from the whole dose curve; as a rule, active = well fitted activation curve with a large enough effect; inconclusive = small, poorly fitted or top-dose-only effect, or another doubt; inactive = no such curve, though single readings can be large or run the other way. This is one part of the list.

test: Primary qHTS for Identification of Small Molecule Activators of Huntingtin-Antisense Promoter Activity; conditions: HEK293 HTT-AS promoter firefly luciferase reporter, 24 h; series mostly up to 57.5 µM; activity change, positive = activation: at the top concentration; note: nearly all actives have a fitted effect of over 55% in size
How it was run: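 HEK293 cells carrying firefly luciferase reporters were seeded at 2,500 per well in Opti-MEM and cultured for 24 h. They were then treated with compounds at up to 57.5 uM final for 24 h at 37 degrees C before Dual-Glo luminescence readout.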

SMILES	activity change, positive = activation
Cc1ccccc1OCC(=O)Nc1ccc(OCc2cc(=O)n3ccccc3n2)cc1	inactive: 14%
Cc1ccc(CNC(=O)c2ccc3oc(=O)n(Cc4ccccc4)c3c2)cc1	inactive: -24.1%
COc1ccc(Cl)cc1NC(=O)C1CCCN(S(=O)(=O)c2ccc3c(c2)CCCC(=O)N3)C1 (stereo not drawn)	inactive: -23.6%
O=C(CSc1nc2c(c(=O)[nH]1)CN(Cc1ccc3c(c1)OCO3)CC2)Nc1cc(F)ccc1F	inactive: -5.4%
COc1ccc(NC(=O)CSc2nc3ccccc3n2CC(=O)NCc2ccc(F)cc2)cc1	inactive: -2.33%
COC(=O)c1ccc(NC(=O)c2cc3cc(C)ccc3n2C)cc1	inactive: -17.8%
CCCCSCCCNC(=O)c1cn(CC)c2ccc(S(=O)(=O)N3CCOCC3)cc2c1=O	inactive: -24.6%
CCOc1ccc(NC(=O)CSc2nnc3c(C)cc4ccccc4n23)cc1	inactive: 12.4%
COc1ccc(S(=O)(=O)N2CCC(C(=O)Nc3ccc(Oc4ccccc4)cc3)CC2)cc1OC	inactive: -12.7%
Nc1ccc(S(=O)(=O)c2ccc(N)cc2)cc1	inactive: -3%
COc1ccc(NC(=O)c2ccc(-c3nc(COc4ccccc4)c(C)o3)cc2)cc1	inactive: -15.8%
COc1ccc2c(c1)c1c3n2CCN(C)C3=NCC1	inactive: -6.97%
CN(C)CCc1c[nH]c2ccc(Cn3cncn3)cc12	inactive: -5.07%
Cc1ccccc1C(=O)Nc1cccc(-c2nc3cccnc3s2)c1	inactive: -17.4%
COc1ccc(C(CNC(=O)COc2cc(C)c(Cl)c(C)c2)N2CCCCC2)cc1 (stereo not drawn)	inactive: -16.2%
CC(C)C(C)(C)C(C)(C)C(C)(C)S	inactive: -5.18% [at 116 µM, percent change from vehicle, -100% = no light]
COc1ccc(Cn2ccc3nc(C)c(C(=O)Nc4ccc(OC)c(OC)c4)cc3c2=O)cc1	inactive: -12.3%
COc1cccc(N2CCN(C(=O)CCn3nc(C)c(S(=O)(=O)N4CCCC4)c3C)CC2)c1	inactive: 2.45%
O=C(CSc1nc(=O)n(Cc2ccncc2)c2c1CCC2)Nc1ccccc1	inactive: -4.71%
CCCN(CCC)C(=O)c1c[nH]c2ccc(S(=O)(=O)N(C)c3ccc(Cl)cc3)cc2c1=O	inactive: -22.7%
CCCCOC(=O)c1ccc(NC(=O)C2(c3cccs3)CCOCC2)cc1	inactive: -21.5%
CCOC(=O)c1c(NC(=O)CSc2cn(CCNC(=O)c3ccc(OC)cc3)c3ccccc23)sc2c1CCC2	inactive: -49.5%
COc1ccc(NC(=O)CSc2nc(-c3ccccc3)cc(-c3cc(OC)c(OC)c(OC)c3)c2C#N)c(OC)c1	inactive: -18.2%
CCOc1ccccc1N(C)C(=O)c1sc2nc3n(c(=O)c2c1C)CCCC3	inactive: -14.4%

SMILES	activity change, positive = activation
Cc1nn(CC(=O)Nc2ccc(C(C)C)cc2)c(=O)c2c(C)n(-c3ccc(Cl)cc3)nc12	inactive: -19.3%
COc1ccc(NC(=O)CSc2nccn2C2CCCC2)cc1OC	inactive: -14.4%
COc1ccc(-c2cn3nc(N4CCCC(C(=O)Nc5ccccc5F)C4)sc3n2)cc1 (stereo not drawn)	inactive: -17.5%
CCCCN(CCCNC(=O)c1cc(Nc2ccc(OC)cc2OC)nc2ccccc12)Cc1ccccc1	inactive: -34.1%
Cc1ccc(Cn2cc(S(=O)(=O)c3ccccc3)c(=O)c3cc(F)c(N4CCOCC4)cc32)cc1	inactive: -18%
Cn1ccc2cc(S(=O)(=O)N3CCN(C(=O)Nc4cccc(F)c4)CC3)ccc21	inactive: -15.3%
COc1ccc(NC(=O)C(c2ccc(OC)cc2)N(C)C(=O)Cc2cccs2)cc1 (stereo not drawn)	inactive: -2.11%
CC(C)(Oc1ccc(Cl)cc1)C(=O)Nc1ccc(-c2nc3ncccc3o2)cc1	inactive: -4.05%
COc1ccccc1N1CCN(S(=O)(=O)CCNC(=O)c2cc(=O)c3ccccc3o2)CC1	inactive: -1.54%
COCCn1c(C)cc(O)c(C(c2ccccc2)N2CCN(c3ccc(F)cc3)CC2)c1=O (stereo not drawn)	inactive: -6.43%
Cc1ccc(N(C)C(=O)Cn2nc(Cc3ccncc3)c3ccccc3c2=O)cc1C	inactive: -3.73%
Cc1ccc(CNS(=O)(=O)c2ccc(F)c(C(=O)Nc3ccc(C)c(F)c3)c2)cc1	inactive: -18.6%
O=C(NCCS(=O)(=O)N1CCN(c2ccccc2F)CC1)c1cc(=O)c2ccccc2o1	inactive: -9.98%
O=C(NCCc1ccc(Cl)cc1)c1ccc(CS(=O)(=O)Cc2ccc(F)cc2)o1	inactive: -15.3%
O=C(Nc1ccc(F)cc1)c1ccc(-n2cnc3cccnc32)cc1	inactive: 3.94%
COC(=O)c1c(SC)nc2ccccc2c1OCc1cccc(C)c1	inactive: -4.68%
O=c1c(S(=O)(=O)c2ccccc2)cn(Cc2ccc(F)cc2)c2cc(N3CCCC3)c(F)cc12	inactive: -12.9%
Cc1ccc(OCc2cc(=O)n3c4c(sc3n2)CCCC4)c(C)c1	inactive: -5.29%
COc1cccc(CNC(=O)C2CCC(CNS(=O)(=O)c3cccs3)CC2)c1 (stereo not drawn)	inactive: -8.7%
CCCC(=O)N(c1ccc2oc3c(c2c1)CCCC3)S(=O)(=O)c1ccc(CC)cc1	inactive: -19.3%
Cc1ccccc1NC(=O)c1ccc(NC(=O)N2CCSc3ncccc32)cc1	inactive: -0.938%
COc1cccc(NC(=O)c2sc(-n3nc(C)c(Cc4ccccc4Cl)c3C)nc2C)c1	inactive: -4.25%
CC1CCN(S(=O)(=O)c2ccc3c(c2)N(CC(=O)NCc2ccccc2Cl)C(=O)CO3)CC1	inactive: -22%
COc1ccc(OC)c(-n2c(=O)[nH]c3cc(C(=O)NCCc4ccc(OC)c(OC)c4)ccc3c2=O)c1	inactive: -4.19%
